Reference: the supplement of paper PMC11417369
The list shows a part of the results.

Test system: PF3D7_0420300 AP2 domain 1 (GST-tagged)
Assay: gcPBM binding intensity (ln(normalized median fluorescence intensity)); higher = stronger DNA binding
Outline: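 Binding intensity values are the highest Masliner-normalised natural-log median intensity among replicate spots of either probe orientation. The binding step lasted 1 h in 1× PBS with 1% milk, 0.2 mg/ml BSA, 0.5% salmon testes DNA and 0.03% Triton X-100, using GST-tagged P. falciparum DNA-binding domains expressed in E. coli on an Agilent 4 × 180k array of primer-extended double-stranded 36-bp intergenic genomic probes plus negative controls. Alexa488 anti-GST antibody and a 488 nm scan detected bound protein.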

Sequence | gcPBM binding intensity (ln)
ACAGTATAAAAATAAGCACACACACTAATATATATT [CACACA_site8212] | 10.1
TAAAATATATTTTTCTGTACACAAAAATATATTAAA [XGTACX_site2813] | 8.9
TATATATTAATATATGCATGTTAATATATTATGAAA [TGCATGCA_site61] | 9
TAAATATAGGGTAATAGTACATAATTATATTCTTTT [XGTACX_site3883] | 9.21
TTTTTTTTTTTTTAATGTACCCATGGGCACATAGGT [XGTACX_site486] | 8.67
TATATTTATATATTAGTGCACTTTTTGTTAATTTTT | 9.31
AATGGATTAGCTAGCACACACAAAAAAAAAAAAAAA [CACACA_site3031] | 9.19
TACATATTTGTATATGCACACATAAATTTTTCCATT [CACACA_site9148] | 9.46
AAATATTTATACCACACACACATACCTCTATTTGTA [CACACA_site6957] | 9.98
TAAAGGCAAACAAACACACACACATATATACCTATA [CACACA_site7078] | 9.91
ATAACAAAATAAAACACACACACAAATGTACCTATA [CACACA_site7190] | 10.1
TATTTATAAATATAAACACACAACATTATATGCATA [CACACA_site5748] | 9.48
AAAAGTGTATGTAGGTGTACTTTTTATTTCTTCTTT [XGTACX_site8819] | 9.43
TATATATATATATAATGTACGAATAGAAAAAAAAAA [XGTACX_site7231] | 9.42
CAAAATTTATATAATAGTACACATGATCTTTTTTCT [XGTACX_site8956] | 9.26
GATACAAAATGGGGAACACACACATATATATATATA [CACACA_site9278] | 9.82
TATATATATATATATATATATATTAATATATATTAC [XGTACX_negctrl_site103] | 8.89
AAATTAATAAATATTTTTATAAATTATAATATTAAT [GTGCAC_negctrl_site533] | 8.84
TTGGTACCTATAGATACACACATATATACATATATA [CACACA_site3402] | 9.37
TAAGAGTAGTTATATACACACATGTATATTATAGTT [CACACA_site6815] | 9.49
TATATATATATATTATGTACGTATCAGTTTGTATGT [XGTACX_site695] | 9.48
ATTTTTAATATTATTACACACACTAAAAAAAAAAAA [CACACA_site1067] | 9.37
TTATAAATTAGAGGTACACACAAAAAAAAAAAGAAA [CACACA_site6740] | 9.74

Sequence | gcPBM binding intensity (ln)
CACGACATTAACAATACATGCAGAAAAACAAAAAAT [TGCATGCA_site689] | 9.61
TATAAACTTAATTTGAGTACTTAATAATAATTTTGT [XGTACX_site3730] | 8.96
AATGGGTTAGCACATACACACCAATATATTATATAT [CACACA_site9011] | 9.57
ATTTATGATATGTAAACATGCATAAAAATTTCAAAA [TGCATGCA_site858] | 8.99
TATATATGTATATATGGTACAGAATATTCTACATTA [XGTACX_site5077] | 9.23
CAATCATTTTATTGTTGTACAGTAATTATGAATTCA [XGTACX_site7508] | 9.03
TACCACATCGGTAAATGTACTTATAAAAAAAAAAAA [XGTACX_site3364] | 8.92
CATCCACATATATGTACACACATATATATATATATA [CACACA_site2964] | 9.49
TTTTTTTTTTTTTTTGCACACACATTGAATTATTAT [CACACA_site198] | 9.59
TACATATAAATATATAAATATAAATAAATAAATAAA [XGTACX_negctrl_site180] | 9.25
AAATGGAAAAGGTGTACACAAAAAAAAGGGAAAAGC [CACACA_site5331] | 9.96
CTTTATATATAGTGTACACATTAAACAAATCTCAAT [CACACA_site5845] | 9.17
TTACCAAAAACCTCAAGTACAAAAAATCCCTAATAT [XGTACX_site2313] | 9.37
ATAGTATACAGACACACACACACACGGATATAAATA [CACACA_site6914] | 10.3
ATATATATATATATATGTACTAAATATTCATCCTTA [XGTACX_site6039] | 9.08
AAGTTTAAGAAATAATTCATATTTACTTCCATCCTC [GTGCAC_negctrl_site494] | 9.06
TATAAGAGAAGAAGAAAAAAAAGGTTTCTATAGAAA [XGTACX_negctrl_site421] | 9.17
CATATAGTAATATATACACACACTTGTCTTGTAAAA [CACACA_site8238] | 9.53
AAGAAGCATAAATGTACACACATATTTATATATTAA [CACACA_site1332] | 9.5
ATATTTATAATTTTTTGTACACATTTTTTAAAGATA [XGTACX_site1784] | 9.28
TCTTATAATTTACCTACACACAGGAAATATATAAAT [CACACA_site294] | 9.48
ACACAATGTAGTGTATAAATACAATAAAAGGTTGTA [TGCATGCA_negctrl_site251] | 9.48
TCAGAAATATTACAAAGTACATGCAACGAAAATTTC [XGTACX_site5061] | 9.37

Sequence | gcPBM binding intensity (ln)
TGATATTTAAATTTTGCACACGCATATGAAATTAGG [CACACA_site1034] | 9.02
ATGACGTAGTGGTGTACACACATGGTACCTTTATTC [CACACA_site1547] | 9.58
AAAAAAATATTCAAAGCATGCCTATTTACACATATT [TGCATGCA_site806] | 9.28
TTTCCCTACCAAAAGTGTACTTATACATATTTTTAT [XGTACX_site5495] | 9.17
ATACGAAAATATTTTGCACACTATAATTATTCATAT [CACACA_site1765] | 9.55
AAAAAAAAAAAAAAAGTGCATTAATAAATTTTAATA | 8.92
ACATCTATGTATAATACACACACTAATATATAATTG [CACACA_site5134] | 9.62
ACATATTATTCTTCTTGTACACATAAATTTTATAAA [XGTACX_site299] | 9.5
TTTTTTTCATAATATACACACAAAAAAAAAAAAAAA [CACACA_site3224] | 8.81
ATATATATATATATGTGTACATATATATATCATATG [XGTACX_site3126] | 9.09
TATACTCATATATAAACACACAAAAAAAAAAAAAAA [CACACA_site5165] | 9.37
TGTCATGATACATACACACACATACACATACACATA [CACACA_site2135] | 10
TATTTAATTATATAAAATTAAATTTTTAATTCTTCC [CACACA_negctrl_site473] | 8.62
AAACAACAAAAATGATATATATAAAATTTATAATAT [XGTACX_negctrl_site185] | 9.48
ATGCATAAAAGAAATACACACATAAATATATAAATA [CACACA_site2163] | 9.72
TATGGATTACACAATTGTACAAGAAAAATGTAAATA [XGTACX_site4040] | 9.28
TCTATTATCCTTTGCACACAAAATAAATGAAAAAAT [CACACA_site3029] | 9.32
ATATAAGTTTTTTCTCAAAAAGTATAACGAGCATGA [CACACA_negctrl_site1375] | 9.21
ACATTATATAAATATATACATATATATATATATAAA [GTGCAC_negctrl_site115] | 8.95
TTTGATAAATGATACACACACAATATTTATAAAATA [CACACA_site7040] | 9.72
CCCACGTATATTTTGTGTACATAAATAAATAAATAA [XGTACX_site4046] | 9.1
AAATATAATAATACATTGCACATATATTATATATAT [TGCATGCA_negctrl_site611] | 9.2
TGTAATAATCTTCATTTCTTTTTTTTTTTTTTTTGT [CACACA_negctrl_site1388] | 8.96

Sequence | gcPBM binding intensity (ln)
TAACTTAATAAAAAAAGTACATATATTTTTAATAAA [XGTACX_site2707] | 9
AGTGAATATTACGAAACACACAAAAAAATACATTTC [CACACA_site511] | 9.64
TATTTATTTATTTTGTTATAATTAAAATGGATACAT [XGTACX_negctrl_site387] | 9.05
AGTAGTCTGGAGAAGAGTACATAGTATCTGGTAGCT [XGTACX_site2017] | 9.19
CTACACACTTATAAATGTACAGGATTTAAGTATATG [XGTACX_site8245] | 9.32
TATTATTTTAAGATTGTTTATGTAAAGAATTATGAA [CACACA_negctrl_site445] | 8.85
AAATTATATACCACAGTGCAAAAGGCAGGTATACGT | 9.53
TGTGTATATATGCTGGTGCAACTTTAAAAAATAATC | 9.14
GTAGAGAAAAAAATGTGGACACAAAAAATAAAAAGG [XGTACX_site4058] | 9.41
TATATTGCAAAAAGTACACACATAAATAAATACATA [CACACA_site6589] | 9.68
TTTTTTTTTTTTTGCACACACATATATAAATATATA [CACACA_site3949] | 9.61
GTTTATATGTTCATAGTGCATATATGTTGATTTATT | 9.56
TTTTTTTTTTTTTACTGTACTTAATAAGATTGAATA [XGTACX_site2384] | 8.89
TATAAAAAAAAAAAAAAAAAAAAAAAAAAAAAAAAA [TGCATGCA_negctrl_site42] | 8.63
ATAAATATTATTTTACGTACATATTTATGAAGTATT [XGTACX_site8746] | 9.12
AAATTATAAAAATGTAGTACAGACAATATATTCGTA [XGTACX_site8307] | 9.45
CAGGAGAGAAAATATCGTACAAGCAAAAATAAGTGG [XGTACX_site8557] | 9.53
TATGGATAAATAAATACACACATAAATTTAAATATA [CACACA_site1282] | 9.62
GCCGCACCCAGATACGCACACAAGAAAAAAATATTC [CACACA_site3456] | 9.26
TATAAACGCACCTACACACACAACGTAAATGCATTG [CACACA_site7120] | 9.86
